Laboratory results as given in the supplement of paper PMC12217912.
The other results are listed elsewhere or left out. Sequences were assembled here from the parent chain. Values near 0.05 are background.

B1: TEV protease; numbered along this chain (parent)
chain: MGESLFKGPRDYNPISSSICHLTNESDGHTTSLYGIGFGPFIITNKHLFRRNNGTLVVQSLHGVFKVKDTTTLQQHLVDGRDMIIIRMPKDFPPFPQKLKFREPQREERICLVTTNFQTKSMSSMVSDTSCTFPSGDGIFWKHWIQTKDGQCGSPLVSTRDGFIVGIHSASNFTNTNNYFTSVPKNFMELLTNQEAQQWVSGWRLNADSVLWGGHKVFMVKPEEPFQPVKEATQL

Variants of: B1
Experiment: raw area under fraction-flipped curve 0-4 h after induction (AUC4h, not background-subtracted), DNA-recorder readout of cleavage of the substrate (dimensionless); higher = more cleavage of the substrate by the protease variant
Details: temperature: 34 °C; time window: 0-4 h after rhamnose induction
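Note: Bxb1 expression induced with 0.2% (w/v) L-rhamnose at OD600 near 0.5, cultures sampled hourly, flipped fraction per protease–substrate barcode pair counted by paired-end Illumina sequencing.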

Row | Variant | area with substrate ENLDFQS | area with substrate ENLFFQS | area with substrate ENLHFQS | area with substrate ENLKFQS | area with substrate ENLPFQS | area with substrate ENLRFQS | area with substrate ENLTFQS | area with substrate ENLEFQS | area with substrate ENLGFQS | area with substrate ENLIFQS | area with substrate ENLNFQS | area with substrate ENLSFQS | area with substrate ENLVFQS | area with substrate ENLQFQS | area with substrate ENLLFQS | area with substrate ENLMFQS | area with substrate ENLWFQS
1 | T71Q | 0.0623 | 0.0927 | 0.0794 | 0.0825 | 0.0602 | 0.0694 | 0.0927 | – | – | – | – | – | – | – | – | – | –
2 | L73C | 0.0647 | 0.0644 | 0.0628 | 0.079 | 0.0622 | 0.056 | – | 0.0644 | 0.067 | 0.059 | 0.0597 | 0.0717 | 0.0688 | – | – | – | –
3 | G80S | 0.0661 | – | – | 0.0638 | 0.0595 | 0.0644 | – | 0.071 | – | 0.0613 | 0.0759 | – | – | 0.0665 | – | – | –
4 | R81S | 0.0642 | 0.0486 | 0.0624 | 0.0468 | 0.0722 | 0.073 | 0.0656 | 0.069 | – | 0.0453 | – | 0.057 | – | 0.0583 | 0.0689 | 0.0711 | 0.0758
5 | R87A | 0.0571 | 0.0772 | 0.0692 | 0.0846 | 0.0687 | – | 0.07 | – | 0.0791 | – | 0.0634 | 0.0718 | – | 0.0539 | 0.0968 | 0.0819 | –
6 | K90P | 0.066 | 0.0824 | 0.0757 | – | – | 0.0801 | – | – | – | 0.0919 | – | 0.0766 | – | 0.065 | 0.0553 | – | 0.063
7 | D91N | 0.0744 | 0.126 | – | 0.0853 | – | 0.086 | – | – | – | 0.0842 | 0.0626 | 0.0261 | – | – | 0.0904 | – | 0.0673
8 | D91R | 0.0679 | – | – | – | 0.0396 | – | – | – | 0.0745 | – | – | – | 0.0927 | – | – | – | 0.0815
9 | F92I | 0.0627 | 0.08 | 0.0692 | 0.0714 | – | 0.0659 | – | 0.111 | 0.0617 | – | 0.0564 | 0.0526 | – | 0.0641 | 0.0823 | 0.0665 | –
10 | P93V | 0.0532 | – | 0.042 | – | 0.0585 | – | 0.0616 | – | – | 0.0821 | 0.065 | 0.0665 | 0.0789 | 0.0586 | – | 0.0782 | –
11 | P94S | 0.0757 | 0.0902 | 0.0626 | – | 0.0446 | – | – | 0.0659 | – | 0.0779 | 0.053 | 0.0602 | – | – | 0.0836 | – | –
12 | F95C | 0.0526 | 0.0799 | – | 0.0653 | 0.0499 | 0.0801 | – | – | – | 0.0703 | 0.0622 | – | 0.0426 | 0.067 | 0.0608 | – | –
13 | F95D | 0.0471 | – | – | – | 0.0556 | – | – | – | – | 0.0358 | – | – | – | – | 0.0402 | – | –
14 | F95K | 0.0477 | 0.0627 | – | 0.0483 | – | 0.0492 | – | – | – | – | 0.0565 | 0.0376 | – | 0.0623 | – | 0.0427 | 0.0469
15 | L99G | 0.0686 | 0.0838 | – | – | 0.0763 | 0.0557 | – | 0.0504 | – | – | – | – | – | 0.0488 | – | 0.0648 | –
16 | F101C | 0.0751 | 0.0535 | 0.0543 | 0.0685 | 0.0568 | 0.0874 | – | 0.0507 | 0.0361 | 0.0649 | – | 0.0568 | 0.0619 | 0.0483 | 0.0665 | – | –
17 | Q105P | 0.0475 | 0.0312 | 0.0566 | 0.0493 | 0.0497 | – | – | – | – | 0.0454 | 0.0579 | 0.0378 | 0.042 | 0.0236 | 0.0514 | – | –
18 | E107I | 0.0627 | 0.0512 | 0.06 | 0.0869 | 0.083 | – | – | – | 0.0726 | – | 0.0727 | 0.0602 | – | – | – | – | –

Row | Variant | area with substrate ENLDFQS | area with substrate ENLFFQS | area with substrate ENLHFQS | area with substrate ENLKFQS | area with substrate ENLPFQS | area with substrate ENLRFQS | area with substrate ENLTFQS | area with substrate ENLEFQS | area with substrate ENLGFQS | area with substrate ENLIFQS | area with substrate ENLNFQS | area with substrate ENLSFQS | area with substrate ENLVFQS | area with substrate ENLQFQS | area with substrate ENLLFQS | area with substrate ENLMFQS | area with substrate ENLWFQS
19 | E108F | 0.0624 | 0.0965 | 0.0625 | – | – | – | – | 0.0654 | – | – | 0.0421 | – | – | – | – | – | 0.0489
20 | I110Y | 0.0487 | 0.0616 | 0.0566 | – | – | 0.0424 | – | – | – | – | 0.0692 | – | 0.0656 | 0.0452 | – | 0.0697 | –
21 | T115A | 0.0547 | 0.0813 | 0.0768 | – | 0.066 | 0.0665 | – | 0.0602 | – | 0.0775 | 0.0797 | – | 0.0838 | – | – | – | 0.0511
22 | Q118P | 0.0841 | 0.0893 | 0.0693 | 0.0783 | – | 0.0745 | – | 0.0455 | 0.0549 | 0.0906 | 0.0616 | 0.0692 | – | – | 0.08 | – | –
23 | Q118R | 0.0677 | 0.0997 | 0.0711 | 0.0826 | 0.0588 | – | – | 0.0808 | – | 0.0856 | 0.0654 | – | – | 0.0595 | 0.0665 | – | –
24 | T119D | 0.0764 | 0.115 | 0.0885 | 0.0096 | 0.0567 | – | – | – | 0.0875 | – | 0.0512 | – | – | 0.0578 | – | – | –
25 | S123R | 0.0614 | 0.111 | – | 0.0848 | 0.0642 | 0.0818 | – | 0.0144 | – | 0.108 | 0.0671 | 0.0724 | 0.0925 | 0.0605 | – | – | –
26 | S124N | 0.0593 | – | – | – | – | 0.0757 | – | – | – | 0.0863 | – | 0.0815 | – | 0.0649 | – | – | –
27 | M125A | 0.0723 | 0.0902 | – | 0.0649 | 0.0423 | – | – | – | – | 0.0808 | 0.0467 | 0.0643 | – | 0.0802 | – | – | 0.0659
28 | M125C | 0.0657 | 0.0759 | – | 0.106 | 0.0699 | 0.103 | – | 0.0791 | – | 0.0746 | – | 0.0495 | – | 0.0685 | – | 0.0738 | 0.0628
29 | M125P | 0.0278 | – | – | 0.0796 | – | – | – | – | – | – | 0.0542 | 0.0517 | – | – | – | – | –
30 | S127W | 0.0398 | 0.0848 | 0.0687 | 0.0832 | 0.0621 | 0.0778 | – | 0.0543 | 0.0512 | 0.111 | 0.0631 | 0.0686 | – | 0.0716 | 0.0786 | 0.0647 | –
31 | T129G | 0.0622 | 0.101 | 0.0744 | 0.0677 | – | 0.0761 | – | – | – | – | – | – | – | 0.0959 | 0.0663 | – | 0.079
32 | F133A | 0.0609 | 0.0999 | 0.0684 | 0.0724 | – | – | 0.079 | 0.062 | – | – | – | 0.0757 | – | 0.0871 | 0.0685 | – | –
33 | F140Q | 0.0652 | 0.0565 | 0.0625 | 0.0708 | 0.056 | 0.0655 | – | 0.0573 | – | – | – | – | 0.0931 | – | – | – | 0.0457
34 | K142A | 0.0703 | 0.0727 | 0.0841 | 0.0917 | 0.0493 | 0.0552 | 0.0951 | 0.0586 | – | – | – | 0.0682 | 0.0675 | – | 0.0587 | – | 0.066
35 | T147K | 0.0588 | 0.0634 | 0.0688 | 0.068 | 0.0766 | – | – | 0.0668 | – | 0.0647 | 0.0628 | 0.0579 | – | – | – | – | 0.0565
36 | S154Y | 0.0621 | 0.0674 | 0.0554 | 0.0706 | – | – | – | 0.0674 | – | – | 0.066 | 0.0712 | – | – | 0.0595 | – | –
